Test results taken from patent US20260200903A1, “PHARMACEUTICAL COMPOSITION FOR AMELIORATING MALIGNANT DISEASES” (KINKI UNIVERSITY, priority 2020, published 2026).
At least one read-out could not be matched to a standard name with certainty.

Tests used:
Format in all cases: cell-based, human
IgG [1] = assay: IgG secretion in L363 cells, ELISA; conditions: L363 culture supernatant after 10 days; compounds at 0.005-50 μM; control 2098 ng/mL
Description: The inhibitory effect of each compound on IgG secretion was examined by enzyme-linked immunosorbent assay (ELISA) using L363 cells.
(§1) As a control, compounds untreated L363 cells were seeded in 75 cm^2 flasks and incubated for 10 days at 37° C. and 5% CO2. L363 cells were seeded into 75 cm^2 flasks and pre-cultured for 4 h. After incubation, L363 cells were treated with 0.1 μM M7, 0.05 μM M9, 0.1 μM yk-7, 0.1 μM yk-8-3, 50 μM yk-8-1, 0.1 μM M11, 0.01 μM M12, 0.005 μM M14, 0.005 μM M15, 0.005 μM M16, 1 μM M18, and 1 μM M19 at final concentrations, and incubated for 10 days at 37° C. and 5% CO2. After 10 days of incubation, the culture supernatant was collected and IgG secretion was measured by ELISA. This measurement was performed using a human anti-IgG antibody ELISA kit (Funakoshi).

[2] = tested on: immunoglobulin free λ light chain; assay: Immunoglobulin free λ light chain secretion in L363 cells, ELISA; conditions: L363 culture supernatant after 10 days; compounds at 0.005-50 μM; control 145 μg/L
Description: The inhibitory effect of each compound on immunoglobulin free λ light chain secretion was examined by enzyme-linked immunosorbent assay (ELISA) using L363 cells.
as §1, with “immunoglobulin free λ light chain” for “IgG”, “anti-λ chain” for “anti-IgG”

MIP-1α = MIP-1α secretion in L363 cells, Luminex; conditions: L363 culture supernatant after 10 days; compounds at 0.005-50 μM; control 266 μg/mL
Description: The inhibitory effect of each compound on MIP-1α secretion was examined using Luminex in L363 cells.
as §1, with “the” for “IgG”, “secretion of MIP-la, a bone destruction-related factor and a growth-promoting factor,” for “secretion”, “Luminex. The human Magnetic Luminex Assay (R&D)” for “ELISA. This measurement”, “used for this measurement.” for “performed using a human anti-IgG antibody ELISA kit (Funakoshi).”

IgG [3] = assay: IgG secretion in KMS-28BM cells, ELISA; conditions: KMS-28BM culture supernatant after 10 days; compounds at 0.005-50 μM; control 1326 ng/mL
Description: The inhibitory effect of each compound on IgG secretion was examined by enzyme-linked immunosorbent assay (ELISA) using KMS-28BM cells.
(§2) As a control, compounds untreated KMS-28BM cells were seeded in 75 cm^2 flasks and incubated for 10 days at 37° C. and 5% CO2. KMS-28BM cells were seeded into 75 cm^2 flasks and pre-cultured for 4 h. After incubation, KMS-28BM cells were treated with […], 0.05 μM M9, 0.1 μM yk-7, 0.1 μM yk-8-3, 50 μM yk-8-1, 0.5 μM M11, […], 0.005 μM M14, 0.005 μM M15, 0.005 μM M16, 0.5 μM M18, and 0.5 μM M19 at final concentrations, and incubated for 10 days at 37° C. and 5% CO2. After 10 days of incubation, the culture supernatant was collected and IgG secretion was measured by ELISA. This measurement was performed using a human anti-IgG antibody ELISA kit (Funakoshi).

IL-6 = IL-6 secretion in KMS-28BM cells, Luminex; conditions: KMS-28BM culture supernatant after 10 days; compounds at 0.005-50 μM; control 143 μg/mL
Description: The inhibitory effect of each compound on IL-6 secretion was examined using Luminex in KMS-28BM cells.
as §2, with “the” for “IgG”, “secretion of IL-6, a bone destruction-related factor and a growth-promoting factor,” for “secretion”, “Luminex. The human Magnetic Luminex Assay (R&D)” for “ELISA. This measurement”, “used for this measurement.” for “performed using a human anti-IgG antibody ELISA kit (Funakoshi).”

[4] = tested on: immunoglobulin free λ light chain; assay: Immunoglobulin free λ light chain secretion in KMS-28BM cells, ELISA; conditions: KMS-28BM culture supernatant after 10 days; compounds at 0.005-50 μM; control 48 μg/L
Description: The inhibitory effect of each compound on immunoglobulin free λ light chain secretion was examined by enzyme-linked immunosorbent assay (ELISA) using KMS-28BM cells.
as §2, with “immunoglobulin free λ light chain” for “IgG”, “anti-λchain” for “anti-IgG”

SMILES | IgG secretion (IgG [1]) [ng/mL] | λ chain secretion [2] [µg/L] | MIP-1α secretion (MIP-1α) [µg/mL] | IgG secretion (IgG [3]) [ng/mL] | IL-6 secretion (IL-6) [µg/mL] | λ chain secretion [4] [µg/L]
CCCC(=O)OC[C@H]1O[C@@H](c2c(O)cc3oc4cc(O)c(O)cc4c(=O)c3c2OC(=O)CCC)[C@H](OC(=O)CCC)[C@@H](OC(=O)CCC)[C@@H]1OC(=O)CCC [Compound M12, 1,2′,3′,4′,6-penta-O-butyrylmangiferin] | 33 | 10 | 2 | 56 | 14 | 0.6
C=CCOc1cc(O)cc2oc3cc(O)c(O)cc3c(=O)c12 [Compound M19, 1-allyloxy-3,6,7-trihydroxy-9H-xanthen-9-one] | 413 | 17 | 42 | 356 | 22 | 6.6
CCC(=O)OC[C@H]1O[C@@H](c2c(OC(=O)CC)cc3oc4cc(OC(=O)CC)c(OC(=O)CC)cc4c(=O)c3c2OC(=O)CC)[C@H](OC(=O)CC)[C@@H](OC(=O)CC)[C@@H]1OC(=O)CC [Compound M7, 1,3,2′,3′,4′,6,6′,7-octa-O-propionylmangiferin] | 50 | – | 9 | 67 | 12 | –
CC(C)(C)C(=O)OC[C@H]1O[C@@H](c2c(O)cc3oc4cc(O)c(O)cc4c(=O)c3c2O)[C@H](OC(=O)C(C)(C)C)[C@@H](OC(=O)C(C)(C)C)[C@@H]1OC(=O)C(C)(C)C [Compound M15, 2′,3′,4′,6′-tetra-O-pivaloylmangiferin] | 169 | 13 | 30 | 164 | 14 | 5.4
CCCC(=O)OC[C@H]1O[C@@H](c2c(O)cc3oc4cc(O)c(O)cc4c(=O)c3c2O)[C@H](OC(=O)CCC)[C@@H](OC(=O)CCC)[C@@H]1OC(=O)CCC [Compound M14, 2′,3′,4′,6′-tetra-O-butyrylmangiferin] | 61 | 10 | 2 | 50 | 12 | 1
O=c1c2cc(O)c(O)cc2oc2cc(O)cc(OCCO)c12 [Compound M18, 3,6,7-trihydroxy-1-(2-hydroxyethoxy)-9H-xanthen-9-one] | 84 | 8 | 3 | 56 | 11 | 0.9
CCCCO[C@@H]1[C@@H](OCCCC)[C@H](c2c(O)cc3oc4cc(O)c(O)cc4c(=O)c3c2O)O[C@H](COC(=O)CCC)[C@H]1OC(=O)CCC [Compound M16, 2′,3′-di-O-butyl-4′,6′-di-O-butyrylmangiferin] | 56 | 9 | 2 | 67 | 12 | 1.8
CCCCC(=O)OC[C@H]1O[C@@H](c2c(O)cc3oc4cc(O)c(O)cc4c(=O)c3c2OC(=O)CCCC)[C@H](OC(=O)CCCC)[C@@H](OC(=O)CCCC)[C@@H]1OC(=O)CCCC [yk-8-3, 1,2′,3′,4′,6-penta-O-valerylmangiferin] | 95 | 26 | 2 | 56 | 14 | 1.3
CCC(=O)OC[C@H]1O[C@@H](c2c(O)cc3oc4cc(O)c(O)cc4c(=O)c3c2O)[C@H](OC(=O)CC)[C@@H](OC(=O)CC)[C@@H]1OC(=O)CC [Compound M9, 2′,3′,4′,6′-tetra-O-propionylmangiferin] | 27 | 19 | 3 | 44 | 11 | 3
CCCCC(=O)OC[C@H]1O[C@@H](c2c(O)cc3oc4cc(O)c(O)cc4c(=O)c3c2O)[C@H](OC(=O)CCCC)[C@@H](OC(=O)CCCC)[C@@H]1OC(=O)CCCC [yk-7, 2′,3′,4′,6′-tetra-O-valerylmangiferin] | 61 | 30 | 17 | 56 | 16 | 2.3
